In article PMC9950447, “Targeting USP10 induces degradation of oncogenic ANLN in esophageal squamous cell carcinoma” (Cell Death and Differentiation, 2022):
Results are given in words; binding and its absence hold for the method and conditions named. For some of these results: In cells and extracts the contact can be indirect. Some results given as binding are weak or reduced against the parent protein; the word gives no strength. For some of these results: Where a sequence is shown, tags or fusion partners need not be part of it.

Chains of the proteins cited; added tags and fusions are not shown. Lines headed by an entry give the natural chain unless they say otherwise; changes in a name come on top. A line that says so, or that is headed by a name, gives the form on record, which may keep a tag or linker. Residues count along the entry.
UniProt Q9UM11: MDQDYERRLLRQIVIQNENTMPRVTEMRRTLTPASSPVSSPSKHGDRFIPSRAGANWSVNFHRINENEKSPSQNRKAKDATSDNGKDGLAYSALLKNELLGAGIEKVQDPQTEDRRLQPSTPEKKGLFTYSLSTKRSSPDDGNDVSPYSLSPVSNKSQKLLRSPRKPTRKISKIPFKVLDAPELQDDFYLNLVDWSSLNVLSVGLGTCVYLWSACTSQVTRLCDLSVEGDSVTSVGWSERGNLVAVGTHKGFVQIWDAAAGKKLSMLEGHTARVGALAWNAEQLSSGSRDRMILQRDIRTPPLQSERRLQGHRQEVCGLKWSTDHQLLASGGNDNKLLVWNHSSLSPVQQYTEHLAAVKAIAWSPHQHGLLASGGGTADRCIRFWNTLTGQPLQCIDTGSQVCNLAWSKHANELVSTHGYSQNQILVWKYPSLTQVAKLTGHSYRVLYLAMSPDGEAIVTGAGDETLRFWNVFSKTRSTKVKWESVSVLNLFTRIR
USP10 amino acids 210-802, expressed in HEK293T cells (Q14694, residues 206-798): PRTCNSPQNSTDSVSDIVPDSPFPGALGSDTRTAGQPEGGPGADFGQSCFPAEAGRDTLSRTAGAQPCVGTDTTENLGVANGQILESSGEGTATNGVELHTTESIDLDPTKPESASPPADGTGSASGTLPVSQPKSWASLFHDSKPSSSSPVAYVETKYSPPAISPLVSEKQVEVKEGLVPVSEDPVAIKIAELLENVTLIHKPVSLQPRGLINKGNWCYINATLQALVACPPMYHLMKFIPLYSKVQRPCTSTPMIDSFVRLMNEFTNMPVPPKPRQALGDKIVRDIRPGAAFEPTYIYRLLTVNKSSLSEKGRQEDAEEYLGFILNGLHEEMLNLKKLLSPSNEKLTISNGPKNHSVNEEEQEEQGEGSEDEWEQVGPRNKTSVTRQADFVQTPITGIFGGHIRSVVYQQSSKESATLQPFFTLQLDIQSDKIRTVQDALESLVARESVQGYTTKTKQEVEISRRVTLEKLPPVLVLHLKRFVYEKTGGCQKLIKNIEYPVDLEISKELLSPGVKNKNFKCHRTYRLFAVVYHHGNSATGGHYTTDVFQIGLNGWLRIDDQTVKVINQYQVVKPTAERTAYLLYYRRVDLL
USP10 amino acids 403-802, expressed in HEK293T cells (Q14694, residues 399-798): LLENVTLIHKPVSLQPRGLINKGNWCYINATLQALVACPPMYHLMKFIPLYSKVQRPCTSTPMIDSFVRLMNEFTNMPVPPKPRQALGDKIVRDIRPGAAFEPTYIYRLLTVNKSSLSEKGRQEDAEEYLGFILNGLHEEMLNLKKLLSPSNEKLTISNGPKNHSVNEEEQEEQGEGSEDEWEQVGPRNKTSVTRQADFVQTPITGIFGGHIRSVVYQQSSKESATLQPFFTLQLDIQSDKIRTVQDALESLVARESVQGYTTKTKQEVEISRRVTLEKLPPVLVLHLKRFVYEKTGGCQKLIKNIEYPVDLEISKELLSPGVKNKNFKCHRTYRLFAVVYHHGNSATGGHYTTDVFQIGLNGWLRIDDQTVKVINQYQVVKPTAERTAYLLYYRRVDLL
recombinant His-USP10 (Q14694-3, form named): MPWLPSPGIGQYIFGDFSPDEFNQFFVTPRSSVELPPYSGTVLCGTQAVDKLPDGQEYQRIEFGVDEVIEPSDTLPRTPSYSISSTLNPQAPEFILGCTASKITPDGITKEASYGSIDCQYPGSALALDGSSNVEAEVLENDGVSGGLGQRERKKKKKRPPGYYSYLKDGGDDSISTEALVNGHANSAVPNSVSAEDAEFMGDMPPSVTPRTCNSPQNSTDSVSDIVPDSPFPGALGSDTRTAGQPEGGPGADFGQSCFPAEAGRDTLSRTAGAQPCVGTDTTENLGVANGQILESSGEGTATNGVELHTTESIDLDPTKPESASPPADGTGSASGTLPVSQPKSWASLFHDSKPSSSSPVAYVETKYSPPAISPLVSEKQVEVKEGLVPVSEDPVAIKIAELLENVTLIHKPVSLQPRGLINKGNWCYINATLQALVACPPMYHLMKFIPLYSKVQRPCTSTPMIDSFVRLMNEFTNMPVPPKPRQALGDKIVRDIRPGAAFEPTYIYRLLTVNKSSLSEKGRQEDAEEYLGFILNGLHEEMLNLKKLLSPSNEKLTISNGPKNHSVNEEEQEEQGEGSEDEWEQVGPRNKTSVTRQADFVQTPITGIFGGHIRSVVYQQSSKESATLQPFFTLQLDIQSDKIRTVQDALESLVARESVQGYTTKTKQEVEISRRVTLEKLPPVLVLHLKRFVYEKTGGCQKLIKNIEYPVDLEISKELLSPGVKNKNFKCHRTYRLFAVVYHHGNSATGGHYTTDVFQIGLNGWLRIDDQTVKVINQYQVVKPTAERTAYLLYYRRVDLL

Columns and labels:
[1] = molecular target: Cdh1 (FZR1), tagged, expressed in HEK293T cells (human) (UniProt Q9UM11); assay: co-IP; HEK293T cells transfected with the indicated plasmids for 48 h, harvested with EBC buffer, immunoprecipitation with HA or Flag magnetic beads, western blot
[2] = molecular target: T1, ANLN, tagged, expressed in HEK293T cells (human) (UniProt Q9NQW6); assay: as above
T1 sequence: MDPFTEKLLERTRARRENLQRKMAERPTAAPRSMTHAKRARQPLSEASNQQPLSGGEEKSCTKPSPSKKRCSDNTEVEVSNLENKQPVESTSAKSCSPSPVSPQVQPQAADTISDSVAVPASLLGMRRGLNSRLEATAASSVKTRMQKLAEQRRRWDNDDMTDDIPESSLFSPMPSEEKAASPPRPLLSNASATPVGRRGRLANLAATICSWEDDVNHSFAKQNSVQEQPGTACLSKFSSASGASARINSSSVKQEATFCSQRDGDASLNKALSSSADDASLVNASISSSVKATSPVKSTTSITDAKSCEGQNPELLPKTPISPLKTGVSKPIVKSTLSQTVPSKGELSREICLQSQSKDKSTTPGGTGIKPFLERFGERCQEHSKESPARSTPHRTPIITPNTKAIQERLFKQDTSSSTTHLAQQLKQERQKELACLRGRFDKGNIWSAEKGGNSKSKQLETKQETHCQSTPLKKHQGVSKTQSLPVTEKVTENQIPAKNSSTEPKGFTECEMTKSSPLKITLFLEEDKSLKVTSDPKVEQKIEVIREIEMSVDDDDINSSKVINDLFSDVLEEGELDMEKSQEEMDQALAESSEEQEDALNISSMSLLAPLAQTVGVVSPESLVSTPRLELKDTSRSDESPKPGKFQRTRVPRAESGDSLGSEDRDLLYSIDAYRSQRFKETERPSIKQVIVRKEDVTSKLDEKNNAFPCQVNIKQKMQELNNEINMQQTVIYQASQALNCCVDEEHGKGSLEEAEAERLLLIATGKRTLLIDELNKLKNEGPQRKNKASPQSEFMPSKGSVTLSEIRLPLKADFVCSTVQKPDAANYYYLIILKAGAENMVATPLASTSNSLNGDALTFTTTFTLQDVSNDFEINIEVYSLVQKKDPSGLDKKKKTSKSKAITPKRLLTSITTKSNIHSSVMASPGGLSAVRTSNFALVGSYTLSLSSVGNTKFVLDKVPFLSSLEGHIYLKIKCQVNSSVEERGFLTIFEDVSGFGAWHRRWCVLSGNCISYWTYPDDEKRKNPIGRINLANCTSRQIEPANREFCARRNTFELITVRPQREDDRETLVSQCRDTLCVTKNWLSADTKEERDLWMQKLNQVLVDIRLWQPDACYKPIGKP

[3] = molecular target: T2, Anillin (ANLN), endogenous (human (endogenous in KYSE150 and KYSE30)) (UniProt Q9NQW6); assay: co-IP; endogenous proteins in KYSE150 (and KYSE30) cells; EBC buffer (50 mM Tris pH 7.5, 120 mM NaCl, 0.5% NP-40), ANLN antibody or normal mouse IgG, protein A/G magnetic beads, 4 °C; also after siRNA, MG132 (20 μM), double thymidine block and release, or F806 (10 μM)
T2 sequence: T1 sequence

[4] = molecular target: Cdh1 (FZR1), endogenous (human (endogenous in KYSE150)) (UniProt Q9UM11); assay: as above
[5] = molecular target: recombinant GST-Cdh1 (human) (UniProt Q9UM11); assay: pull-down; in vitro GST pull down: GST-tagged protein bound to GST Bind Resin in GST lysis buffer, His-tagged proteins added, 4 °C for 4 h, six washes with PBST, western blot; both purified

## USP10, tagged, expressed in HEK293T cells (from UniProt Q14694-3 1-802) (enzyme)
[1]
  binding: binds
[2]
  binding: binds

## Cdh1 (FZR1), endogenous (from UniProt Q9UM11 1-496)
[3]
  binding: binds

## Cdh1 (FZR1), tagged, expressed in HEK293T cells (from UniProt Q9UM11 1-496)
[2]
  binding: binds

## USP10, endogenous (from UniProt Q14694-3 1-802) (enzyme)
[4]
  binding: binds
[3]
  binding: binds

## USP10 amino acids 210-802, expressed in HEK293T cells (from UniProt Q14694-3 210-802) (domain or fragment)
[2]
  binding: binds

## recombinant His-USP10 (from UniProt Q14694-3 1-802) (enzyme)
[5]
  binding: binds

## USP10 amino acids 403-802, expressed in HEK293T cells (from UniProt Q14694-3 403-802) (domain or fragment)
[2]
  binding: no binding

B1: recombinant His-ANLN (protein, UniProt Q9NQW6 1-1124)
chain: T1 sequence
[5]
  binding: binds
